Consider 57 compounds from paper PMC4336329 (PLoS ONE, 2015).

About 2,200 (0.71%) of roughly 310,000 compounds showed an effect of 50% or more. Effects have a minus sign here. This is one part of the list.

The experiment deals with human ether-à-go-go-related gene (hERG) potassium channel (human, UniProt Q12809). As to the kind of experiment: primary screen, population patch clamp on CHO cells stably expressing hERG.
human ether-à-go-go-related gene (hERG) potassium channel, sequence (Q12809 whole entry, looked up): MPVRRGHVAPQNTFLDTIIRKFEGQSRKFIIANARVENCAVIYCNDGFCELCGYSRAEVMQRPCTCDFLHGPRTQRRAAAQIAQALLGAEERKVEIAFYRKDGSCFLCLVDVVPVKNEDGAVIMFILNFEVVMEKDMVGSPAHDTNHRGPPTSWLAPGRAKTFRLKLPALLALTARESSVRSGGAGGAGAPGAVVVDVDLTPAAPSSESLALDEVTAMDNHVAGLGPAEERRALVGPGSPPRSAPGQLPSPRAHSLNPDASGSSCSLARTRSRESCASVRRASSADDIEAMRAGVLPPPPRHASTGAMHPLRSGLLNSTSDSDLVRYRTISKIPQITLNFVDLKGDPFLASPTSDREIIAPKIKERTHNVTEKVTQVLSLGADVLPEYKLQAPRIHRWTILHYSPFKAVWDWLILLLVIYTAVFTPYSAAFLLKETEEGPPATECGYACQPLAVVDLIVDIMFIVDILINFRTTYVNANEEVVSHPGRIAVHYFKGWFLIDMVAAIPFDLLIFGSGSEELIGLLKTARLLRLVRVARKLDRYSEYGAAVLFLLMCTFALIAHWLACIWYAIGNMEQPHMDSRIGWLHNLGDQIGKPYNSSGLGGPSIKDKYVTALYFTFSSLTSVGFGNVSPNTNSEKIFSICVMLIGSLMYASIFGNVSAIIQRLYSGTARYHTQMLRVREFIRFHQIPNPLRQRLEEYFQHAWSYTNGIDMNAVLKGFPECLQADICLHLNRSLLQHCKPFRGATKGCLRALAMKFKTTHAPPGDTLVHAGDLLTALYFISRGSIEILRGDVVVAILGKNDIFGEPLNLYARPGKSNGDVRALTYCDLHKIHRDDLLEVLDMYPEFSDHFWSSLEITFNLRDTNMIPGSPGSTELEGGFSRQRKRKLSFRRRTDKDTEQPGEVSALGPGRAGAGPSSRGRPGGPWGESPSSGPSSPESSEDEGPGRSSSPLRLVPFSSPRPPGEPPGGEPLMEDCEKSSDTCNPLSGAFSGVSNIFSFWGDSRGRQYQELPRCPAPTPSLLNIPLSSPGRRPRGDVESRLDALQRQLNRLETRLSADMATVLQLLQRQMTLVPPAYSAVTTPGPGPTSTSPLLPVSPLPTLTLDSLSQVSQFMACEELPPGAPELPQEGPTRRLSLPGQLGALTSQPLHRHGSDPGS
For `CCn1cc(CN2CCC(C(=O)Nc3cccc(-c4cscn4)c3)CC2)cn1`, the “hERG current change (%, negative = inhibition) at 1uM” value is 6.14%.

`O=C(CCCSc1nc(-c2ccco2)cc(C(F)(F)F)n1)NCC1CCCO1` (stereo not drawn): the “hERG current change (%, negative = inhibition) at 1uM” value is given as 5.5%.

In the case of `O=C(CSc1nnc(COc2ccc(Cl)cc2)o1)NC1CCCCC1`, the “hERG current change (%, negative = inhibition) at 1uM” value is on record as -2.69%.

For `O=c1[nH]c(=O)n(-c2ccc(F)cc2)c(O)c1C=Nc1ccccc1N1CCCC1`, the “hERG current change (%, negative = inhibition) at 1uM” value came out at 3.66%.

Regarding `Cc1cc(C)c(C#N)c(Cl)n1`, the “hERG current change (%, negative = inhibition) at 1uM” value is reported as -4.32%.

For `COc1ccccc1/C=C/C(=O)OCC(=O)N1c2ccccc2CC1C` (stereo not drawn), the “hERG current change (%, negative = inhibition) at 1uM” value is listed as 5.76%.

In the case of `COc1ccc(CCNC(=O)C(=O)NCC2OCCN2S(=O)(=O)c2ccc3c(c2)OCCO3)cc1` (stereo not drawn), the “hERG current change (%, negative = inhibition) at 1uM” value is 11.7%.

Consider `O=C(Nc1cccc([N+](=O)[O-])c1)c1cccc(C(=O)Nc2cccc([N+](=O)[O-])c2)c1`, for which the “hERG current change (%, negative = inhibition) at 1uM” value came out at 20.8%.

`CCC(=O)c1ccc(N2CCN(C(=O)COc3ccc(F)cc3)CC2)c(F)c1`: the “hERG current change (%, negative = inhibition) at 1uM” value is on record as -71.3%.

For `CC1(C)CC(=O)C2=C(C1)N(Cc1cccnc1)C(=O)C2(NC(=O)c1ccc(F)cc1)C(F)(F)F` (stereo not drawn), the “hERG current change (%, negative = inhibition) at 1uM” value was -13.2%.

Take `COCCNC(=O)/C(C#N)=C/c1c(N2CCN(c3ccccc3)CC2)nc2c(C)cccn2c1=O`: the “hERG current change (%, negative = inhibition) at 1uM” value is reported as 14.3%.

Consider `CC(C)OC(=O)c1cc(NC(=O)C2C3C=CC(O3)C2C(=O)O)cc(C(=O)OC(C)C)c1` (stereo not drawn), for which the “hERG current change (%, negative = inhibition) at 1uM” value is listed as 3.7%.

Regarding `COc1cccc(-c2cc3c(=O)n(-c4ccccc4)c(=S)[nH]c3s2)c1`, the “hERG current change (%, negative = inhibition) at 1uM” value is on record as 11.8%.

For `CCn1ncc(Br)c1C(=O)Nc1cc(C)ccc1F`, the “hERG current change (%, negative = inhibition) at 1uM” value is on record as 8.55%.

As for `COc1ccc(C(=O)C[n+]2ccc3c(c2)nc(-c2ccccc2)n3C)cc1.[Br-]`, the “hERG current change (%, negative = inhibition) at 1uM” value is listed as -0.564%.

For the compound `Cc1ccc(C)c2sc(NC(=O)c3ccc(N4C(=O)CCC4=O)cc3)nc12`, the “hERG current change (%, negative = inhibition) at 1uM” value is given as -0.478%.

In the case of `Cc1nc(N2CCOCC2)nc(OC(C)C)c1[N+](=O)[O-]`, the “hERG current change (%, negative = inhibition) at 1uM” value amounted to 6.71%.

On to `O=C(CN1C(=O)NC2(CCCCC2)C1=O)N1CCOCC1`, for which the “hERG current change (%, negative = inhibition) at 1uM” value was found to be 7.63%.

`Cc1ccccc1C(=O)c1c[nH]c(C(=O)N2CCN(c3ccccc3F)CC2)c1`: the “hERG current change (%, negative = inhibition) at 1uM” value is 10.6%.

With `COc1ccc(OC)c(NC(=O)C(C)N2c3cccc4cccc(c34)S2(=O)=O)c1` (stereo not drawn), the “hERG current change (%, negative = inhibition) at 1uM” value is reported as 13%.

Consider `COc1cccc(CN2CCN(c3nc4nonc4nc3N3CCCCC3)CC2=O)c1`, for which the “hERG current change (%, negative = inhibition) at 1uM” value is on record as 4.7%.

For `CCOc1ccc(C(=O)NC(C)C2COc3ccccc3O2)cc1` (stereo not drawn), the “hERG current change (%, negative = inhibition) at 1uM” value is listed as -0.571%.

On to `COc1cc(NC(=O)c2noc3c2CCCC3)c(OC)cc1Cl`, for which the “hERG current change (%, negative = inhibition) at 1uM” value is given as 7.92%.

Turning to `CCn1c(O)c(N=NC(=O)CNc2cccc(C)c2)c2ccccc21`, the “hERG current change (%, negative = inhibition) at 1uM” value is reported as 11.8%.

As for `Cc1ccc(-c2csc(NC(=O)CN3CC(C)OC(C)C3)n2)cc1` (stereo not drawn), the “hERG current change (%, negative = inhibition) at 1uM” value came out at 11.1%.

As for `CCOc1ccccc1NCc1cc(=O)oc2cc(C)c(O)cc12`, the “hERG current change (%, negative = inhibition) at 1uM” value stood at 16.1%.

Regarding `CCCCNC(=O)NS(=O)(=O)c1ccc(C(=O)OC)o1`, the “hERG current change (%, negative = inhibition) at 1uM” value was determined as 3.41%.

Consider `COCCSc1nc2sc3c(c2c(=O)n1-c1ccccc1)CCN(C)C3`, for which the “hERG current change (%, negative = inhibition) at 1uM” value is 15%.

Take `Cc1ccc(OCCN2CCCCCC2)c(C)c1`: the “hERG current change (%, negative = inhibition) at 1uM” value is -15.3%.

With `Cc1nnc(SCC(=O)N2CC(=O)Nc3ccccc32)n1-c1ccccc1`, the “hERG current change (%, negative = inhibition) at 1uM” value is 15.3%.

Consider `O=C(NCC1CCCO1)C1CCCN(S(=O)(=O)c2ccc(Br)cc2)C1` (stereo not drawn), for which the “hERG current change (%, negative = inhibition) at 1uM” value is on record as 6.18%.

For `Cc1[nH]c(C)c(S(=O)(=O)N2CCN(c3cccc(C(F)(F)F)c3)CC2)c1C(=O)N1CCCCC1`, the “hERG current change (%, negative = inhibition) at 1uM” value came to 16.7%.

Take `CC(C)(C)CC(=O)NC(=S)NCc1ccccc1`: the “hERG current change (%, negative = inhibition) at 1uM” value was determined as 16.5%.

As for `CCOc1ccccc1CN1CCN(Cc2c[nH]c3ccccc23)CC1CCO` (stereo not drawn), the “hERG current change (%, negative = inhibition) at 1uM” value was 9.45%.

Take `Cc1nc2c(-c3ccccc3)c[nH]n2c(=O)c1Cc1ccccc1`: the “hERG current change (%, negative = inhibition) at 1uM” value amounted to 13.3%.

Turning to `O=C1CCCN2N=C(SCC(=O)Nc3ccc(OC(F)(F)F)cc3)SC2=N1`, the “hERG current change (%, negative = inhibition) at 1uM” value was determined as 16.2%.

Consider `Cc1ccc(C(=O)NCc2ccco2)cc1S(=O)(=O)N1CCOCC1`, for which the “hERG current change (%, negative = inhibition) at 1uM” value is given as 18.1%.

As for `Cc1cc(C)cc(OCC(=O)OCC(=O)N(CC(C)C)c2c(N)n(Cc3ccccc3)c(=O)[nH]c2=O)c1`, the “hERG current change (%, negative = inhibition) at 1uM” value is reported as 3.24%.

Take `O=c1[nH]c(C2CCCN(S(=O)(=O)c3cccc(F)c3)C2)nc2c1nnn2Cc1ccccc1` (stereo not drawn): the “hERG current change (%, negative = inhibition) at 1uM” value is on record as 2.9%.

Take `O=C(NNc1cc(Cl)cc(Cl)c1)c1cccs1`: the “hERG current change (%, negative = inhibition) at 1uM” value worked out at 15.6%.

With `Cc1ccc(C)c(Nc2ncnc(N)c2[N+](=O)[O-])c1`, the “hERG current change (%, negative = inhibition) at 1uM” value stood at 9.83%.

Take `CC(=O)N1CCN(c2nnc(-c3ccc(C)cc3)c3ccccc23)CC1`: the “hERG current change (%, negative = inhibition) at 1uM” value was -10.2%.

For `CCN(CCC(=O)Nc1ccc(Br)c(C)c1)Cc1ccccc1.Cl`, the “hERG current change (%, negative = inhibition) at 1uM” value is reported as -4.84%.

With `O=C(CNC(=O)c1cccs1)N/N=C/c1ccc(O)cc1O`, the “hERG current change (%, negative = inhibition) at 1uM” value is 10.6%.

Take `Cn1cnc([N+](=O)[O-])c1SCCO`: the “hERG current change (%, negative = inhibition) at 1uM” value came out at 18.7%.

`O=C(OCC(=O)N1CCN(C(=O)c2ccco2)CC1)c1ccc(Cl)c(Cl)c1`: the “hERG current change (%, negative = inhibition) at 1uM” value is on record as -24.1%.

Turning to `CN1CCN(/C(=N\S(=O)(=O)c2ccc(F)cc2)c2ccccc2)CC1`, the “hERG current change (%, negative = inhibition) at 1uM” value worked out at 14.1%.

In the case of `COc1ccc(Cc2nnc(NS(C)(=O)=O)s2)cc1`, the “hERG current change (%, negative = inhibition) at 1uM” value is given as 4.8%.

As for `O=C(c1ccccc1Cl)N1CCN(c2ncccn2)CC1`, the “hERG current change (%, negative = inhibition) at 1uM” value is given as 9.9%.

Take `CC(=O)N1N=C(c2cccc(Br)c2)OC12CCCC2`: the “hERG current change (%, negative = inhibition) at 1uM” value is recorded as 9.44%.

As for `COCc1nc2sc(C)c(C)c2c(=O)[nH]1`, the “hERG current change (%, negative = inhibition) at 1uM” value was determined as 10.9%.

Consider `O=C1CC2(CCN(C(=O)c3ccc(Br)cc3)CC2)Oc2ccccc21`, for which the “hERG current change (%, negative = inhibition) at 1uM” value is on record as -30.8%.

As to `CC(C)C[C@@H](CO)N1CCN(Cc2ccc(O)cc2)CCC1=O`, the “hERG current change (%, negative = inhibition) at 1uM” value worked out at 8.84%.

With `CC(=O)c1c(C(C)=O)c(C)n(-c2ccc3ncccc3c2)c1C`, the “hERG current change (%, negative = inhibition) at 1uM” value worked out at 17.5%.

`Cc1[nH]c2ccccc2c1[C@H]1[C@@H](CC#N)C1(C)C`: the “hERG current change (%, negative = inhibition) at 1uM” value came to 0.902%.

`Cc1nnc(SCC(=O)NC2CCCCCC2)n1C`: the “hERG current change (%, negative = inhibition) at 1uM” value was determined as 20.1%.

As to `COc1ccc(C2/C(=C(/O)c3ccccc3)C(=O)C(=O)N2c2ncccn2)cc1OC` (stereo not drawn), the “hERG current change (%, negative = inhibition) at 1uM” value is on record as 4.14%.
